From PMC6004359
These are yes or no findings as the source states them, for the method shown. In cells and extracts the contact can be indirect. Some results given as binding are weak or reduced against the parent protein; the word gives no strength. For some assays here: Sequences can lack the tags named with a protein.

Protein sequences, listed by entry. Tags and fused reporters are not part of them. Lines headed by an entry give the natural chain unless they say otherwise; changes in a name come on top. Chains listed by the source or under a name are the forms on record and can include a tag or linker. Residues count along the entry.
UniProt Q6UX68: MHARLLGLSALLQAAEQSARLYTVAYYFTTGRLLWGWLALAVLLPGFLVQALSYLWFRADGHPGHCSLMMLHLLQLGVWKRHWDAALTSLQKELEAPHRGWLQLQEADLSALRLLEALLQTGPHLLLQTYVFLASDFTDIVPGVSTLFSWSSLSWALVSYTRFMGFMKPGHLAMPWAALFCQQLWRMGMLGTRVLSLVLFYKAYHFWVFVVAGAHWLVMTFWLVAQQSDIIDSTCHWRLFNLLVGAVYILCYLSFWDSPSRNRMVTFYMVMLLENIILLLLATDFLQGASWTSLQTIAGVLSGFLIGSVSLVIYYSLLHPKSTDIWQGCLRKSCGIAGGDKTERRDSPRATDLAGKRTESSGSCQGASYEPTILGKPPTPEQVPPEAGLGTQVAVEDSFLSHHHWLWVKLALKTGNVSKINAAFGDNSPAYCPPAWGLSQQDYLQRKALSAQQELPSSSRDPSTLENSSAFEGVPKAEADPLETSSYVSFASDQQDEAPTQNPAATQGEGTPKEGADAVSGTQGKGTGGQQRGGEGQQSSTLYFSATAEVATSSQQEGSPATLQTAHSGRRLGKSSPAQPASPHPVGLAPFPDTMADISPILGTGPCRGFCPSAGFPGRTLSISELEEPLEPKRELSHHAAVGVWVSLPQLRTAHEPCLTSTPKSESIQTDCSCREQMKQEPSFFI
KIT/D814V, endogenous in P815 cells (P05532-2, form named): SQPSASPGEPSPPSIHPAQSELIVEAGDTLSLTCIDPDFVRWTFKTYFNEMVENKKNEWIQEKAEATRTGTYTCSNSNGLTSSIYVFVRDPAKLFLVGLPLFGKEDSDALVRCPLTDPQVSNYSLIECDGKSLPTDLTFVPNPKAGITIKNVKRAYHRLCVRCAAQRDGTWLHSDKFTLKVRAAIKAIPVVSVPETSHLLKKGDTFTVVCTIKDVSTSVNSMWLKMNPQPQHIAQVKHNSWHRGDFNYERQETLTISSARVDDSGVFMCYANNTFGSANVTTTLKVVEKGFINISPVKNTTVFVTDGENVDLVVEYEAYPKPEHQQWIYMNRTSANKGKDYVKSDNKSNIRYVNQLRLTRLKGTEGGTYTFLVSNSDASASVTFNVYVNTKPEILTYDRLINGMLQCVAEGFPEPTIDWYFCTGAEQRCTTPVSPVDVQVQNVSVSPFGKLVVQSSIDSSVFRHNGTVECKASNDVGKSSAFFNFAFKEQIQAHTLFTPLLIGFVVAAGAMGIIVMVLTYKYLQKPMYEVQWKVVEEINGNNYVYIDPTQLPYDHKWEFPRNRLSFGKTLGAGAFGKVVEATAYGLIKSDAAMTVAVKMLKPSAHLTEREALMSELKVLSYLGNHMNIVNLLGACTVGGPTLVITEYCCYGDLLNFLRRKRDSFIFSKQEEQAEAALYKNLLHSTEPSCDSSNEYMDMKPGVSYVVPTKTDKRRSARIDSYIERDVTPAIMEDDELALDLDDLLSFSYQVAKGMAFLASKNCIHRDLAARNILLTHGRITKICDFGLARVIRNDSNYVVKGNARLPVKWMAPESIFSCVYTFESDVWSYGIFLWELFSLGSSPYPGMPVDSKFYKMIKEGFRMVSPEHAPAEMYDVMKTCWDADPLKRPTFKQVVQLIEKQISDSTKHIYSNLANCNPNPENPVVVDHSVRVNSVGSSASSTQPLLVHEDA
wild-type KIT (transfected in COS1 cells) (P10721, residues 26-976): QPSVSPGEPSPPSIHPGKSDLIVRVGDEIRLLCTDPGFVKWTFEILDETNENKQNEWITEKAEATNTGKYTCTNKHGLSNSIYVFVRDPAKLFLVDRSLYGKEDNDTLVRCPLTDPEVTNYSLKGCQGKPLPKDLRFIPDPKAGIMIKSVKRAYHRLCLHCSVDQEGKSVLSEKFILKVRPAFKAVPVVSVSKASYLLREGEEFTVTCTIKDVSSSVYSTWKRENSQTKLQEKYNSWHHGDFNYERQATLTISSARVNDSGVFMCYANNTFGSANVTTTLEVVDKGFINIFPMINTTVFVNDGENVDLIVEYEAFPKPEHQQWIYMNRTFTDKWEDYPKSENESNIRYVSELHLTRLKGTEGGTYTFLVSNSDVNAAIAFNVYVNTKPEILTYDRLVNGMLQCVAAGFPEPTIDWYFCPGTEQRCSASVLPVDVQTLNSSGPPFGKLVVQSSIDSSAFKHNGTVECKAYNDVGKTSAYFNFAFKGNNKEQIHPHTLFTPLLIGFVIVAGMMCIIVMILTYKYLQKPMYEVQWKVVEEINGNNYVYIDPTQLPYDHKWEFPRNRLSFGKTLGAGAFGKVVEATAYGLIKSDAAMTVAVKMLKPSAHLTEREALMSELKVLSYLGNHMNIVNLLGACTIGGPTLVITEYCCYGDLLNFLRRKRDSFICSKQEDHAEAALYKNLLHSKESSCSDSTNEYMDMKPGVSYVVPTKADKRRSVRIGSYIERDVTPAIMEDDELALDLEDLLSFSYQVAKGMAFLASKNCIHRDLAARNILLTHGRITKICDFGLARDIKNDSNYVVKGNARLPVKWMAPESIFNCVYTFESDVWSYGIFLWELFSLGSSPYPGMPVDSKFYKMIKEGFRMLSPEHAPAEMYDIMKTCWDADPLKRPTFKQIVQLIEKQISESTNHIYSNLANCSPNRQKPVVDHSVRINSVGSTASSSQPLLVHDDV
KIT/D816V (transfected in COS1 cells) (P10721, form named): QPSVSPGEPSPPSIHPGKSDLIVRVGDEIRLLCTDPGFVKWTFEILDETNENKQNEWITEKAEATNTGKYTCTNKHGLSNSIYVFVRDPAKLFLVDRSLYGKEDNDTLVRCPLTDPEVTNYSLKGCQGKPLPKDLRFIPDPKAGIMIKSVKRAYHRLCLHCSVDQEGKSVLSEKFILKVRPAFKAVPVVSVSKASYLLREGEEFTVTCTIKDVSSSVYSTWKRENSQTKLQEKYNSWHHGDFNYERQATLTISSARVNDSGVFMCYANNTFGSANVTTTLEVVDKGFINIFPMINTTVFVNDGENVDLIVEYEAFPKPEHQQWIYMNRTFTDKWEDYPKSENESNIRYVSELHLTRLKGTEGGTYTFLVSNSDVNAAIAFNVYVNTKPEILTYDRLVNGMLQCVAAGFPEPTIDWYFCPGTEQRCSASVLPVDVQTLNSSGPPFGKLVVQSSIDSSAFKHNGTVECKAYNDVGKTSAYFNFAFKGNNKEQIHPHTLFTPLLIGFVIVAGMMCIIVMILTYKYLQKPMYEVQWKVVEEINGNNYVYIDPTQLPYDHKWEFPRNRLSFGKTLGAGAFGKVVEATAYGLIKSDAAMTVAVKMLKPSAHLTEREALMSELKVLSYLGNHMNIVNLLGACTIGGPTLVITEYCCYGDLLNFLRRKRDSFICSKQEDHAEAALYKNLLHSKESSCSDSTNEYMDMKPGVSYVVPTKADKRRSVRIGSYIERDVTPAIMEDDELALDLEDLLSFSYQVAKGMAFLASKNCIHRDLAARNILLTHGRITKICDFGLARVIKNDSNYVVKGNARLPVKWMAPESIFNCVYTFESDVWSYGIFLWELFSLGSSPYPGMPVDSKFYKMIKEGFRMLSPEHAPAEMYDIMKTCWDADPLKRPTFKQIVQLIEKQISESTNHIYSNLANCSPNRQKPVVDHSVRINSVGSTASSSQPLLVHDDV

Experiments:
[1] = target: T1, XKR5, endogenous in P815 cells (mouse (endogenous in P815)) (UniProt Q5GH66); assay: co-IP; P815 cells lysed and immunoprecipitated with XKR5 antibody or rabbit IgG, SDS-PAGE and western blotting; endogenous proteins
T1 sequence: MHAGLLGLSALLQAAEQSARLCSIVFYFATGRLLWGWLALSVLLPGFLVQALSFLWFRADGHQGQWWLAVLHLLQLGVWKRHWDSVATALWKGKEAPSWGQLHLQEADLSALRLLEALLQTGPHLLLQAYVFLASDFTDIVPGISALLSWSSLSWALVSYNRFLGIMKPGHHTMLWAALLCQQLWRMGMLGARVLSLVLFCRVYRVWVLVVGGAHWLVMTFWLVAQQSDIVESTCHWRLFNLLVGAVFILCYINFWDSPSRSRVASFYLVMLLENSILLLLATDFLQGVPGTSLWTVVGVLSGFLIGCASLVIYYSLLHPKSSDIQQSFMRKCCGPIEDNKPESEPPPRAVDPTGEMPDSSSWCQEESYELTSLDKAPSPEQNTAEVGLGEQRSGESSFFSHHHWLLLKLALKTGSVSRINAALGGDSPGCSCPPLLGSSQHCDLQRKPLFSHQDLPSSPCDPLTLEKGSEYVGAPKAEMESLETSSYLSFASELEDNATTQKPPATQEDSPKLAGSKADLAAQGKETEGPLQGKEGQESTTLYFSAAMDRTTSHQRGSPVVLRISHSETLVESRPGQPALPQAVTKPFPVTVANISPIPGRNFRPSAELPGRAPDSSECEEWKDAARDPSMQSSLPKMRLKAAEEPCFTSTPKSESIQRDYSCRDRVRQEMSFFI

[2] = target: T2, FLAG-tagged murine XKR5 (murine) (UniProt Q5GH66); assay: co-IP; COS1 cells co-transfected with FLAG-tagged XKR5 and KIT or KIT mutants (Fig. 2a: SCF for 2 min, 48 h after transfection); lysates immunoprecipitated with FLAG or KIT antibodies, blotted with KIT antibodies
T2 sequence: T1 sequence

[3] = target: FLAG-tagged human XKR5 (human) (UniProt Q6UX68); assay: as above

| Substance | binding [1] | binding [2] | binding [3] |
| --- | --- | --- | --- |
| KIT/D814V, endogenous in P815 cells (from UniProt P05532-2 25-975) (receptor) | binds | – | – |
| KIT/D816V (transfected in COS1 cells) (from UniProt P10721 26-976) (receptor) | – | binds | binds |
| wild-type KIT (transfected in COS1 cells) (from UniProt P10721 26-976) (receptor) | – | no binding | no binding |
